# The whole screen tested about 110,000 compounds, of which about 230 (0.21%) showed an effect of 50% or more. The list shows a part of the results.
# Target: DPAP1 (Plasmodium falciparum, UniProt Q8IIJ9)
# Assay: primary screen, percent inhibition; read by cleavage of a fluorogenic dipeptide substrate; higher = more effect of the substance
# Design: species or system P. falciparum D10 trophozoite lysates; single well
# 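Note: 30 min substrate incubation versus DMSO and 10 µM JCP410 controls.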
# DPAP1, sequence (Q8IIJ9 whole entry, looked up): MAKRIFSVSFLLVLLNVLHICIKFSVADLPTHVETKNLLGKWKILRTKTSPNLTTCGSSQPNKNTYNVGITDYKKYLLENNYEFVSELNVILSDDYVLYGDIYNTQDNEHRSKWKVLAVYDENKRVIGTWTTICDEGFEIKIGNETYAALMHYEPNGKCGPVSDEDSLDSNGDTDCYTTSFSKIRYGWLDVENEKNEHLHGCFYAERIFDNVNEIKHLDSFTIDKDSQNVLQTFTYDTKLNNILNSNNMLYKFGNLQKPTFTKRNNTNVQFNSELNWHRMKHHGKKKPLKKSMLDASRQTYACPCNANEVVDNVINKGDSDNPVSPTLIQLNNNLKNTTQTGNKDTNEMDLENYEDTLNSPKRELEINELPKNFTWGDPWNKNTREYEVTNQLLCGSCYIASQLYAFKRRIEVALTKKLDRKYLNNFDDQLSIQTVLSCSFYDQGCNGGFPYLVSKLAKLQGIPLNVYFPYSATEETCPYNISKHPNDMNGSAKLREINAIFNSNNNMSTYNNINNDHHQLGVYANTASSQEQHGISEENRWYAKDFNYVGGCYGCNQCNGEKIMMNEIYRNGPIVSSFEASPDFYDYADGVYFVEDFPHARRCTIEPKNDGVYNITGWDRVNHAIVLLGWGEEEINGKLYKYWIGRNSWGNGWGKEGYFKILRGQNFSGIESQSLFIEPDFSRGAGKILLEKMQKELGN
row,SMILES,% Inhibition @ 10 uM [%]
1,CCc1ccc(CNC(=O)c2coc(=O)c3ccccc23)cc1,-3.31
2,CS(=O)(=O)n1nc(-c2ccco2)nc1NCc1cccs1,-3.24
3,CC[C@H](NC(=O)[C@H](Cc1ccc(Br)s1)NC(=O)OCc1ccccc1)C(=O)c1nc2ccccc2o1,-3.04
4,CCOc1ccc(NC(=O)c2cccc3ccccc23)cc1,-5.89
5,CCN(CC)CC/N=C(N)/C(C#N)=C/c1[nH]c2ccccc2c1O,-6.87
6,COc1cccc(OC/C(O)=C(\C#N)c2nc3ccccc3[nH]2)c1,-6.04
7,Cc1nnc(-c2ccc(Cl)cc2)o1,3.32
8,Cc1ccc(CNC(=O)CN2C(=O)c3ccccc3S2(=O)=O)cc1,0.826
9,CCOC(=O)C(C#N)c1ncccc1[N+](=O)[O-] (centres unmarked),1.87
10,COCC(=O)NCCSc1c(-c2ccc(Br)cc2)[nH]c2ccccc12,2.64
11,COc1cc(C(=O)Nc2cc(F)ccc2F)ccc1OC(F)F,0.709
12,Cc1cc(C)nc(SCCC(=O)Nc2ccc(Cl)cc2)n1,0.145
13,CCO/C(O)=C1/C(C)=Nc2ncnn2C1c1ccc(C(=O)OC)cc1 (centres unmarked),-3.37
14,CCCc1nc(N)c(C#N)c(-c2ccccc2)c1CC,-0.631
15,COc1ccc(-c2cc(C(=O)Nc3sc4c(c3C#N)CCCC4)no2)cc1,-4.07
16,CC1CCCC(N2CCN(Cc3cccc(Cl)c3)CC2)C1 (centres unmarked),1.81
17,COc1ccc(/C=C(\C#N)c2nc(-c3ccc(C)cc3C)cs2)cc1,1.08
18,CC(C)CC(C1=C(O)CCCC1=O)C1=C(O)CCCC1=O,14.4
19,COc1ccc(CN2CCCC2)c(C)c1C,0.472
20,Cc1ccc(/C=C2/SC(Nc3ccccc3O)=NC2=O)cc1,3.1
21,O=C(CN1C(=O)c2ccccc2Sc2ncccc21)NCc1ccccn1,-7.87
22,Cc1ccccc1S(=O)(=O)NC1OC(=O)C(Br)=C1Br (centres unmarked),6.42
23,COc1ccc(C(=O)N/C(=C/c2ccc(-c3ccc(Cl)cc3)o2)C(=O)N(C)C)cc1,-0.178
24,CC(=O)N1CCN(Cc2ccc(Br)cc2)CC1,-0.0494
25,CCOC(=O)N1CCN(c2cccc(C)c2C)CC1,-1.02
26,CC12CN3CC(C)(CN(C1)C3c1ccco1)C2=O (centres unmarked),-2.55
27,O=C(NS(=O)(=O)c1ccc(Cl)cc1)c1ccccc1O,3.54
28,O=[N+]([O-])c1ccc(N2CCN(Cc3c(Cl)cccc3Cl)CC2)cc1,-0.0494
29,CC(=O)Nc1cccc(NC(=O)c2cccc(C)c2)c1,3.54

# Source: PMC6919601, “Identification of Plasmodium dipeptidyl aminopeptidase allosteric inhibitors by high throughput screening” (PLoS ONE, 2019)
